Several values for one entry are separate records, joined by “and”; a condition that tells them apart may be missing. Equal values may be shown once. In all, about 350,000 compounds went through this assay and about 31,000 (8.9%) were called active. Inconclusive results, whose numbers are uncertain, are shown with a selection of clear calls. Calls come from the whole dose curve; as a rule, active = well fitted inhibition curve with a large enough effect; inconclusive = small, poorly fitted or top-dose-only effect; inactive = no such curve, though single readings can be large or run the other way. Potencies beside an inconclusive call are fits to weak or partial responses and may not hold up.
The compounds below were run against Histone-lysine N-methyltransferase EHMT2 (Homo sapiens) (UniProt Q96KQ7) (assay: qHTS Assay for Inhibitors of Histone Lysine Methyltransferase G9a). Details: G9a H3K9 monomethylation, AlphaScreen, 2 h; activity, negative = inhibition: at 59 µM (top of the series) unless noted.
In short: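 Methyltransferase reactions run at room temperature for 2 h (20 nM enzyme, 500 nM biotin-H3K9 peptide, 20 uM SAM) after a 15 min compound preincubation; product detected by AlphaScreen beads and anti-H3K9me1 antibody.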
% is set by controls: 0 for no effect and ±100 for the full control effect; potency is the fitted concentration of half-maximal effect; tags give direction and shape of the fitted curve.
Note: nearly all actives have a fitted effect of over 75% in size.

UniProt Q96KQ7, sequence (Q96KQ7 whole entry, looked up): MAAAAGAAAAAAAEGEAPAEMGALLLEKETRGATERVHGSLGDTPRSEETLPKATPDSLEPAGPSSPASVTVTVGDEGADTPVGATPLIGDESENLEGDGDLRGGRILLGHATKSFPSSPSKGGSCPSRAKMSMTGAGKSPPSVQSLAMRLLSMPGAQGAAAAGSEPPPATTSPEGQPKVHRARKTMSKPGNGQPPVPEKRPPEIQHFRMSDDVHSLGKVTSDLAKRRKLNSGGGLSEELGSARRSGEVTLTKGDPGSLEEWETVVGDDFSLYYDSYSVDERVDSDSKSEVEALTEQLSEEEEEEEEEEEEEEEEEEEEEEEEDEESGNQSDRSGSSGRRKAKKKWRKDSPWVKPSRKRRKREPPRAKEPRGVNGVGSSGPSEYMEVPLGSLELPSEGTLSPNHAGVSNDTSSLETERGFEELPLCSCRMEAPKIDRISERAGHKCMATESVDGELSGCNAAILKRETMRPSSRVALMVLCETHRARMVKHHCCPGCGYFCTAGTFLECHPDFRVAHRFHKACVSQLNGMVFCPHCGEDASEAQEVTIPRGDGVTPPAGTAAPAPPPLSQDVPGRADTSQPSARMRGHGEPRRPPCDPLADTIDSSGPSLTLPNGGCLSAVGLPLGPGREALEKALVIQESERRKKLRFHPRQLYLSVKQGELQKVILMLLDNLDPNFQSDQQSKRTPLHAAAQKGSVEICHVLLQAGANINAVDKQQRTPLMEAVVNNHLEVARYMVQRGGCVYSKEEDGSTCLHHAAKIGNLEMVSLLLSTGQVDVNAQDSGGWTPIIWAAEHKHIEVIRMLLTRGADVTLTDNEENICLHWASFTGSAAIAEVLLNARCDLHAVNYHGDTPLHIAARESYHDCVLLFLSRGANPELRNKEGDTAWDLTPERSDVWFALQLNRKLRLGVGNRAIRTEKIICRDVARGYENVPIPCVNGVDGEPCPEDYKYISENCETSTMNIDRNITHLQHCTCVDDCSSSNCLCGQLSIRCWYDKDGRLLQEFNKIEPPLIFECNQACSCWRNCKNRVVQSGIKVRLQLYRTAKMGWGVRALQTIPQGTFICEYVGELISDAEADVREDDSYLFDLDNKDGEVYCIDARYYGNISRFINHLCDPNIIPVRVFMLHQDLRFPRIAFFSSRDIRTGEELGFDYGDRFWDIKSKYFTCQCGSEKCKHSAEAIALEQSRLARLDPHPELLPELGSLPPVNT

**Q.** `CC(=O)Nc1ccc(S(=O)(=O)Nc2ccc(-c3cn4c(C)csc4n3)cc2)cc1` was tested. Which Potency did it give?
**A.** The Potency was inconclusive: 39.8 µM [inhibitor, single point].

**Q.** With `CCc1c(C)sc(NC(=O)c2cc(-c3ccc(OC)cc3)on2)c1C#N` as the compound, how does the Potency read?
**A.** The Potency was active: 10 µM.

**Q.** Which Potency does the source give for `Cc1ccc(C)c(N(CC(=O)NCCSCc2ccco2)S(C)(=O)=O)c1` here?
**A.** The Potency was inconclusive: 50.1 µM [inhibitor, partial curve].

**Q.** How did the Potency turn out when `COc1cccc(NC(=O)C2CC(=O)n3cnnc3S2)c1` (configuration not stated) was run?
**A.** The Potency was active: 0.631 µM.

**Q.** How did the Potency turn out when `Cc1ccc(C(C2=C(O)CC(C)(C)CC2=O)C2C(=O)CC(C)(C)CC2=O)s1` (configuration not stated) was run?
**A.** The Potency was inconclusive: 22.4 µM [inhibitor, single point].

**Q.** With `COc1ccccc1-c1cc(C(F)(F)F)nc(S(=O)(=O)CCCC(=O)Nc2cc(C)ccc2O)n1` as the compound, how does the Potency read?
**A.** The Potency was inconclusive: 8.91 µM [inhibitor, partial curve, poor fit].

**Q.** Which Potency does the source give for `O=C1CCN(Cc2ccccc2)CCN1CCSc1ccccc1` here?
**A.** Its Potency is “inactive”.

**Q.** Which Potency does the source give for `O=C(CN1CCc2ccccc21)NN1CC(=O)N(c2ccc(Cl)cc2)CC1=O` here?
**A.** Its Potency is inconclusive: 25.1 µM [inhibitor, single point].

**Q.** With `CCN(CCCNC(=O)COc1cc(=O)n(C)c2ccccc12)c1cccc(C)c1` as the compound, how does the Potency read?
**A.** The Potency was active: 35.5 µM.

**Q.** How did the Potency turn out when `CC(C)(C)c1ccc(NC(=O)c2ccccc2)c([N+](=O)[O-])c1` was run?
**A.** The Potency was inconclusive: 25.1 µM [inhibitor, partial curve, poor fit].

**Q.** For `COCCn1c(C)cc(C2=NNC(=NC3CC3)SC2)c1C`, which Potency is on record?
**A.** Its Potency is active: 39.8 µM.

**Q.** With `Cc1cccc(-c2cc3nc(C)c(C)c(NCCCn4ccnc4)n3n2)c1` as the compound, how does the activity, negative = inhibition read?
**A.** Its activity, negative = inhibition is inconclusive: -75.8% [inhibitor].

**Q.** `C=C(C)CSc1nc(N)c(C#N)c(-c2ccc(C)cc2)c1C#N` was tested. Which Potency did it give?
**A.** The Potency was inconclusive: 17.8 µM [inhibitor, single point].

**Q.** Which Potency does the source give for `CCCN1CCN(C(c2cc3cc(OCC)ccc3[nH]c2=O)c2nnnn2C2CCCCC2)CC1` (configuration not stated) here?
**A.** Its Potency is inconclusive: 50.1 µM [inhibitor, partial curve].

**Q.** With `Nc1c(C(=O)NCc2ccc3c(c2)OCO3)c2nc3ccccc3nc2n1CCCN1CCOCC1` as the compound, how does the Potency read?
**A.** The Potency was “inactive”.

**Q.** `CC(=O)N1CCN(c2ccc([N+](=O)[O-])cc2C#N)CC1` was tested. Which Potency did it give?
**A.** The Potency was inconclusive: 79.4 µM [inhibitor, single point].

**Q.** With `CCOc1ccc(CNC(=O)c2ccc(-c3nc(CSc4ccc(C)cc4)c(C)o3)cc2)cc1` as the compound, how does the Potency read?
**A.** Its Potency is inconclusive: 4.47 µM [inhibitor, partial curve, poor fit].

**Q.** How did the Potency turn out when `C=C(c1ccc(OC)cc1)c1ccc(OC)cc1` was run?
**A.** The Potency was inconclusive: 89.1 µM [inhibitor, single point].

**Q.** `Cc1noc(C)c1CSCC(=O)Nc1nc2c(F)cc(F)cc2s1` was tested. Which Potency did it give?
**A.** The Potency was inconclusive: 20 µM [inhibitor, single point].

**Q.** For `Cc1ccc(OCC(=O)NNC(=O)c2ccoc2C)c(Br)c1`, which Potency is on record?
**A.** The Potency was inconclusive: 15.8 µM [inhibitor, partial curve, poor fit].

**Q.** How did the Potency turn out when `COc1ccc(OC)c2[nH]c(=O)c(CCNC(=S)NC(C)(C)C)cc12` was run?
**A.** The Potency was “inactive”.

**Q.** How did the Potency turn out when `CCCNC(=O)c1ccc(OC)cc1OC` was run?
**A.** Its Potency is “inactive”.

**Q.** Which Potency does the source give for `Oc1ccc(O)cc1` here?
**A.** Its Potency is active: 1.78 µM and active: 5.97 µM.

**Q.** For `Cc1cc(C(=O)CN2C(=O)CCC2=O)c(C)n1Cc1ccccc1`, which Potency is on record?
**A.** Its Potency is inconclusive: 35.5 µM [inhibitor, single point].

**Q.** `CCN1CCN(c2ccc(S(=O)(=O)N3CCCCC3)cc2NC(=O)C(C)Oc2ccc(F)cc2)CC1` (configuration not stated) was tested. Which Potency did it give?
**A.** Its Potency is inconclusive: 15.8 µM [inhibitor, full curve, poor fit].

**Q.** How did the Potency turn out when `O=C(O)c1ccc(Nc2c3ccccc3nc3ccccc23)cc1` was run?
**A.** Its Potency is inconclusive: 79.4 µM [inhibitor, single point].

**Q.** With `COc1ccccc1-c1nnc(SCC(=O)NC2CCS(=O)(=O)C2)n1N` (configuration not stated) as the compound, how does the Potency read?
**A.** The Potency was inconclusive: 50.1 µM [inhibitor, partial curve].

**Q.** For `COc1cc(/C=C2\SC(=S)N(CCCCC(=O)O)C2=O)ccc1OS(=O)(=O)c1ccc(C)cc1`, which Potency is on record?
**A.** Its Potency is inconclusive: 3.55 µM [inhibitor, partial curve, poor fit].

**Q.** How did the Potency turn out when `CN(CC(=O)Nc1ccc(Cl)c(C(F)(F)F)c1)C(=O)Cn1cc([N+](=O)[O-])ccc1=O` was run?
**A.** The Potency was active: 6.31 µM.

**Q.** For `CCCCn1c(N)c(N(CCOC)C(=O)c2sc3cc(F)ccc3c2Cl)c(=O)[nH]c1=O`, which Potency is on record?
**A.** Its Potency is inconclusive: 89.1 µM [inhibitor, single point].

**Q.** `CC(C)C(=O)Nc1ccc(C(=O)NNC(=S)NC(=O)c2cccs2)cc1` was tested. Which Potency did it give?
**A.** The Potency was inconclusive: 25.1 µM [inhibitor, single point].

**Q.** For `CC(=O)c1cccc(NS(=O)(=O)c2ccc(N/C=C\C(=O)c3ccc(C)cc3)cc2)c1`, which Potency is on record?
**A.** The Potency was inconclusive: 0.794 µM [inhibitor, full curve, poor fit].

**Q.** `Oc1ccccc1C=NCc1ccccc1` was tested. Which activity, negative = inhibition did it give?
**A.** The activity, negative = inhibition was inactive: 12.4% [at 12.7 µM].

**Q.** With `O=CN1Cc2[nH]c3ccccc3c2N(c2ccc(Cl)cc2)C1=O` as the compound, how does the Potency read?
**A.** Its Potency is inconclusive: 8.91 µM [inhibitor, single point].

**Q.** How did the Potency turn out when `O=c1n(Cc2cccc(F)c2)c2ccccc2c2nc(-c3ccccc3)nn12` was run?
**A.** Its Potency is “inactive”.

**Q.** With `Cc1cccc2sc(N(CCCN(C)C)C(=O)c3ccco3)nc12` as the compound, how does the Potency read?
**A.** The Potency was inconclusive: 44.7 µM [inhibitor, partial curve].

**Q.** Which Potency does the source give for `CCNCc1cc(OCC)c(OCC(=O)NCCc2ccccc2)cc1Cl` here?
**A.** Its Potency is inconclusive: 7.08 µM [inhibitor, full curve, poor fit].

**Q.** How did the Potency turn out when `O=C(COC(=O)/C=C/c1ccc(C(F)(F)F)cc1)NC1CC1` was run?
**A.** Its Potency is inconclusive: 56.2 µM [inhibitor, single point].

**Q.** For `CC(=O)c1cc(-c2ccccc2)n(CC(=O)NC(C)(C)C)c1C`, which Potency is on record?
**A.** Its Potency is “inactive”.

**Q.** Which Potency does the source give for `CCN1C(=O)[C@H]2[C@@H](c3ccc(Cl)cc3)N3C(=O)CN(CC4CC4)C(=O)[C@@]3(C)[C@H]2C1=O` here?
**A.** Its Potency is inconclusive: 100 µM [inhibitor, single point].

**Q.** With `O=C(Nc1nnc(SCc2ccc(F)cc2)s1)c1ccc2ncsc2c1` as the compound, how does the Potency read?
**A.** Its Potency is inconclusive: 39.8 µM [inhibitor, single point].

**Q.** For `CCOC(=O)C(CC)Sc1nc(N)c(NC(=O)c2ccc(OC)c(OC)c2)c(=O)[nH]1` (configuration not stated), which Potency is on record?
**A.** Its Potency is inconclusive: 17.8 µM [inhibitor, partial curve, poor fit].
